# This is one part of the list. Binding of human antibodies (heavy:light variable regions, tested as scFv in one mRNA-display pool) to influenza hemagglutinin, with or without the stem antibody CR9114 bound first. Score = (mean enrichment − median) / interquartile range of that screen; higher = more enriched, 0 = typical non-binder. Active = above the paper's cut-off per screen: stems 28; unblocked H1 Solomon Islands 5, H1 Michigan 3, H3 5, H5 19, H7 2.85, both B 5; blocked 9, 7, H5 10, H7 10, B Phuket 10, B Lee 11.5. Scores are scaled within each screen and are no affinities; replicates correlate at about 0.6 to 0.9, and antibodies rare in the pool are noisier.
# B1: R95-1H04 (protein)
# chain 1: QVQLQESGPGLVKPSETLSLTCSLSSGYIGTYSWNWIRQAPGKGLEWIGYVSNSGSTKYNPSLQSRVTISVDMSKNQFSLELRSVSAADTALYYCARAHYFGSGNFIYGYFYYGMDVWGQGTMVTVSS
# chain 2: SYELTQPPSVSVSPGQTASITCSGDKLGDKYACWYQQKPGQSPLLVIYQDTKRPSGVPERFSGSNSGNTATLTINGTQAMDEADYYCQAWDITTHVAFGGGTKLSVL
# B2: 013-10-3F02 (protein)
# chain 1: QVQLVESGGGVAQPGRSLRLSCAASGFTFSTYGMHWVRQAPGKGLEWVAVISYDGSKRYYAEILKDRFTISRDNSKNTVYLQMNSLRTEDTAVYFCAKEGRPLIVSGTHFFQFYYGMDVWGQGTTVTVSS
# chain 2: DIQMTQSPSSLSASVGDRVTISCRASQSIGTYLNWYQQKPGKAPNLLIYGTSTLKSGVPSRFSGSGSGTDFTLTIGSLQPEDFATYFCQQSFSPPLTFGRGTRLEIK
# B3: C1-E04 (protein)
# chain 1: VQLQESGPGLVKPSETLSLTCTVSGDSIISSGSYWAWIRQPPGKGLEWIGFVYYSGSTYYSTSLKSRVTISVDTSKNQFSLKLTSVTAADTAVYFCARDRGGEEYYYGMDVWGPGTTVTVSS
# chain 2: DIQMTQSPSSLSASVGDRVSITCRASQFIINNLNWYQKKPGKAPWLLIYSASTLQSGVPSRFSGSRSGTDFTLTISSLEPEDFATYYCQQGYSTPHTFGQGTKVEIK
# B4: 36.d.02 (protein)
# chain 1: QVQLQESGPGLVKPSQTLSLTCIVSGGSISSGDYFWSWIRQPPGKGLEWIAYMYYTGSTYYNPSLKSRVAISVDTSKNHLALKLTSVTAADTAVYYCGRIPRDIVLVPGGSRWAATIDDWGQGILVTVSS
# chain 2: EIVMTQSPVSLSLSPGERATLSCRASQSVSSYLAWYQQKPGQAPRLLIYGASNRATDIPARFRGSGSGTDFTLTISSLDPEDFAVYYCQQYTNWPRTFGQGTKVETK
# B5: K77-2B11 (protein)
# chain 1: LVQFQESGPGLVKPSETLSLTCTVSGGSISSSTYYWGWIRQPPGKGLEWIGSIYYDGSTYYNPSLKSRVTISVDTSKSRFSLTLSSVTAADTAIFYCARVAQWLRPGYFDYWGQGTLVTVSS
# chain 2: DIVMTQSPDSLAVSLGERATINCKSSQSILYSSINKNYLAWYQQKPGQPPKLLIYWASTRESGVPDRFSGSGSGTDFTLTISSLQAEDVAVYYCQQYYGTPPTFGQGTKLEIK
# B6: 039-10-5B02 (protein)
# chain 1: QVQLQESGPGLVKPPQTLSLTCTVSGGSVSSGTYYWSWIRQPAGKGPEWIGRIYTTGSTDYNPSLKSRVTISIDTSNNRFSLRLNSVTAADTAVYYCARVGPHPTQGVSYFDHWGQGILVTVSS
# chain 2: EIVLTQSPVTLSLSPGERATLSCRASQSFSNYLAWYQQKPGQAPRLLIYDASTRATGVPARFSGSGSGTDFTLTISSLEPEDFAVYYCQLRSNWPLFFTFGPGTKVDIK
# B7: AG12-3A03 (protein)
# chain 1: VQLVESGGGLAQPGRSLRLSCRTSGFRFVDYGMSWFRQAPGKGLEWVSFIGSKSYGATKDYAASVRDRFIISRDDSKSIAYLEMNSLKTDDTAIYYCSRVPLLWRNGWDDDYWGQGTLVTVSS
# chain 2: DIQMTQSPSSLSASVGDRVTITCRASQDITNYLAWFQQRPGEAPKSLIYGASGLQTGVPSRFSGSGSGTDFTLTINSLQPEDFATYYCQQFYNYPITFGGGTKVEIK
# B8: 042-10-2C02 (protein)
# chain 1: EVQLVESGGGLVQPGRSLRLSCKASGFKFGDFALSWVRQAPGKGLEWVGFIRSRRSGGTTEYVASVKGRFIISREDSKSIAYLQMNSLKTEDTAVYYCTRERMIDTGVGGHWGQGTLVTVSS
# chain 2: DIVMTQSPLSLPVTPGESASISCRSSQSLQHSNGYNYLDWYLQKPGQSPQLLIFLASNRASGVPDRFSASGSGTDFTLHISRVEAEDVGVYYCLQGLQTPFTFGPGTKVDIK
# B9: C2-3-G05 (protein)
# chain 1: VQLQESGPGLVKPSETLSLTCTVSGGSISYSNFYWGWIRQPPGKGLEWIGSVYYSGTTYYNPSLKSRVTISIDTSKNQISLKLNFVTAADTALYYCSRLQPYTNYGRSHYYFYALDVWGQGTTVTVSS
# chain 2: EIVLTQSPVTLSLSPGERATLSCRASQSIATSLAWYQHKPGQTPRLLIFDASERATGIPARFSGSGSGTDFTLTISSLEPEDFAVYYCQERSNWPRLTFGGGTKVEIK
# B10: K77-2H12 (protein)
# chain 1: EVQLVESGGGLVQPGGSLRLSCAASGFTFTNYWMTWVRQAPGKGLEWVANIKQDGSDKNYVDSLKGRFTISRDNAKKSLFLQMNSLGAEDTAVYYCARDFSDFGDLYFDYWGQGALVTVSS
# chain 2: QSALTQPRSVSGSPGQSVTVSCTGTRSDVGGYNYVSWYQQHPGKAPKLIIYDVSERPSGVPDRFSGSKSGNTASLTISGLQAEDEADYYCCSYAGSYTWVFGGGTKLT
# B11: 01.q.01 (protein)
# chain 1: QVQLQESSPGLVKPSQTLSLKCTVSGGSVSGGRYSWNWLRQPAGKGLEWIGHIYTTGTINYNPSLRSRVTISVDTSKNQFSLKLSSMTAADTAVYFCARAHLPDVGHYYGLDVWGQGTTVTVSS
# chain 2: DIQLTQSPSSLSASVGDRVTITCRASQGISSYLAWYQQKPGKAPKLLIYAASTLQSGVPSRFSGSGSGTYFTLTISSLQPEDFATYYCQQLNRDLTFGGGSKVEIK
# B12: W85-1C01 (protein)
# chain 1: QVQLQESGPRLVKPSETLSLTCTVSGGSISTTNYYWGWIRQTPGKGLEYIGSVSYSGKPYYNPSLRGRVTISVDTSKTQFSLTVISVTAADTAVYYCTRQAEGGWYGGFSNSWGQGTLVTVSS
# chain 2: DIQMTQSPSTLSASVGDRVTITCRASQSISSWLAWYQQKAGKAPKLLIYKASTLEVGVPSRFSGRGSGTEFTLTISSLQPDDFATYYCQQYDSYLTFGGGTKVEIK
# Molecular target: Influenza A H1N1 A/Michigan/45/2015 hemagglutinin ectodomain
# Experiment: mRNA display binding score; higher = more enriched on the antigen
# Settings: antigen blocked with: 2 µM CR9114 IgG
# Description: (§1)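 A pool of natively paired antibodies, displayed as scFv on mRNA, was selected once on antigen-coated beads and sequenced before and after; two replicates.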
row,Binder,mRNA display binding score
1,B1,inactive: 0.1
2,B2,active: 42.3
3,B3,inactive: -0.539
4,B4,inactive: -0.269
5,B5,inactive: 0.375
6,B6,inactive: -0.484
7,B7,inactive: 0.997
8,B8,inactive: -0.058
9,B9,inactive: -0.409
10,B10,inactive: 0.22
11,B11,inactive: -0.388
12,B12,inactive: 0.583

# Same assay, conditions: antigen blocked with: nothing
row,Binder,mRNA display binding score
1,B1,inactive: 0.443
2,B2,inactive: 0.742
3,B3,inactive: -0.493
4,B4,inactive: 0.434
5,B5,inactive: 0.365
6,B6,inactive: -0.799
7,B7,inactive: -0.319
8,B8,inactive: 0.0683
9,B9,inactive: -0.449
10,B10,inactive: -0.558
11,B11,inactive: 0.123
12,B12,inactive: -0.205

# Molecular target: Influenza A H1N1 A/Solomon Islands/3/2006 hemagglutinin ectodomain
# Experiment: as above
# Settings: antigen blocked with: 2 µM CR9114 IgG
# Description: as §1
row,Binder,mRNA display binding score
1,B1,inactive: 0.825
2,B2,inactive: -0.319
3,B3,inactive: 0.0675
4,B4,inactive: -0.503
5,B5,inactive: 0.381
6,B6,inactive: -0.86
7,B7,inactive: -0.489
8,B8,inactive: 0.2
9,B9,inactive: -0.814
10,B10,inactive: 1.45
11,B11,inactive: -0.116
12,B12,inactive: -0.634

# Same assay, conditions: antigen blocked with: nothing
row,Binder,mRNA display binding score
1,B1,inactive: 0.594
2,B2,inactive: -0.133
3,B3,inactive: -0.497
4,B4,inactive: 0.144
5,B5,inactive: 0.14
6,B6,inactive: -0.591
7,B7,inactive: 0.741
8,B8,inactive: -0.641
9,B9,inactive: -0.36
10,B10,inactive: 0.324
11,B11,inactive: -0.0307
12,B12,inactive: 0.0915

# Molecular target: Influenza A H3N2 A/Singapore/INFIMH-16-0019/2016 hemagglutinin ectodomain
# Experiment: as above
# Settings: antigen blocked with: nothing
# Description: as §1
row,Binder,mRNA display binding score
1,B1,inactive: 0.698
2,B2,inactive: -0.377
3,B3,inactive: -0.5
4,B4,inactive: -0.16
5,B5,inactive: 0.742
6,B6,inactive: -0.00162
7,B7,inactive: 4.92
8,B8,inactive: 0.947
9,B9,inactive: -0.364
10,B10,inactive: -0.223
11,B11,active: 54.2
12,B12,inactive: -0.557

# Molecular target: Influenza A H5N1 A/Qinghai/1A/2005 hemagglutinin ectodomain
# Experiment: as above
# Settings: antigen blocked with: 2 µM CR9114 IgG
# Description: as §1
row,Binder,mRNA display binding score
1,B1,inactive: 0.115
2,B2,inactive: 7.71
3,B3,inactive: -0.703
4,B4,inactive: -0.00422
5,B5,inactive: 0.142
6,B6,inactive: -0.912
7,B7,inactive: 0.539
8,B8,inactive: -0.307
9,B9,inactive: -0.659
10,B10,inactive: 0.501
11,B11,inactive: -0.166
12,B12,inactive: -0.202

# Same assay, conditions: antigen blocked with: nothing
row,Binder,mRNA display binding score
1,B1,inactive: 0.292
2,B2,inactive: 3.61
3,B3,inactive: -0.246
4,B4,inactive: 0.333
5,B5,inactive: -0.164
6,B6,inactive: -0.655
7,B7,inactive: -0.278
8,B8,inactive: -0.318
9,B9,inactive: -0.54
10,B10,inactive: -0.222
11,B11,inactive: -0.438
12,B12,inactive: -0.287

# Molecular target: Influenza A H7N9 A/Shanghai/2/2013 hemagglutinin ectodomain
# Experiment: as above
# Settings: antigen blocked with: 2 µM CR9114 IgG
# Description: as §1
row,Binder,mRNA display binding score
1,B1,inactive: -0.0154
2,B2,inactive: 0.469
3,B3,inactive: -0.386
4,B4,inactive: -0.0319
5,B5,inactive: 1.54
6,B6,inactive: -0.436
7,B7,inactive: 1.64
8,B8,inactive: 1.07
9,B9,inactive: -0.915
10,B10,inactive: 4.26
11,B11,inactive: 2.56
12,B12,inactive: 0.346

# Same assay, conditions: antigen blocked with: nothing
row,Binder,mRNA display binding score
1,B1,inactive: 0.249
2,B2,inactive: -0.796
3,B3,inactive: -0.789
4,B4,inactive: 0.825
5,B5,inactive: 0.725
6,B6,inactive: -0.89
7,B7,inactive: -0.481
8,B8,inactive: -0.349
9,B9,inactive: -0.218
10,B10,inactive: -0.137
11,B11,inactive: -0.114
12,B12,inactive: 0.875

# Molecular target: Influenza B/Lee/1940 hemagglutinin ectodomain
# Experiment: as above
# Settings: antigen blocked with: 2 µM CR9114 IgG
# Description: as §1
row,Binder,mRNA display binding score
1,B1,inactive: 0.0318
2,B2,inactive: 1.85
3,B3,inactive: -0.493
4,B4,inactive: -0.233
5,B5,inactive: 0.612
6,B6,inactive: 0.659
7,B7,inactive: 1.8
8,B8,inactive: 0.461
9,B9,inactive: -0.101
10,B10,inactive: 1.04
11,B11,inactive: 1.38
12,B12,inactive: -0.121

# Same assay, conditions: antigen blocked with: nothing
row,Binder,mRNA display binding score
1,B1,inactive: -0.325
2,B2,inactive: 0.0969
3,B3,inactive: -0.263
4,B4,inactive: -0.352
5,B5,inactive: 0.18
6,B6,inactive: -0.312
7,B7,inactive: -0.0666
8,B8,inactive: -0.354
9,B9,inactive: -0.103
10,B10,inactive: 0.504
11,B11,inactive: -0.25
12,B12,inactive: -0.381

# Molecular target: Influenza B/Phuket/3073/2013 hemagglutinin ectodomain
# Experiment: as above
# Settings: antigen blocked with: 2 µM CR9114 IgG
# Description: as §1
row,Binder,mRNA display binding score
1,B1,inactive: -0.0339
2,B2,inactive: -0.158
3,B3,inactive: -0.45
4,B4,inactive: 0.0518
5,B5,inactive: 0.707
6,B6,inactive: -0.742
7,B7,inactive: 1.49
8,B8,inactive: -0.0124
9,B9,inactive: 0.595
10,B10,inactive: 0.125
11,B11,inactive: 0.402
12,B12,inactive: -0.244

# Same assay, conditions: antigen blocked with: nothing
row,Binder,mRNA display binding score
1,B1,inactive: 0
2,B2,inactive: 0.265
3,B3,inactive: -0.325
4,B4,inactive: -0.0675
5,B5,inactive: 0.307
6,B6,inactive: -0.366
7,B7,inactive: -0.155
8,B8,inactive: 0.0566
9,B9,inactive: 0.518
10,B10,inactive: 0.753
11,B11,inactive: -0.23
12,B12,inactive: 0.081
